Measurements from PubChem BioAssay (NCI).
Values joined by “and” are separate entries in the source; they are usually repeats but may differ in a detail not shown here. Identical values can stand only once.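 Results reflect a 48-hour exposure of cells in 96-well plates to compound at five concentrations. Abbreviation: GI50, concentration required for 50% inhibition of growth. TGI is the concentration that stops growth completely.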

Tested on: NCI-H322M lung
Assay: NCI tumour cell line growth inhibition, 48 h

Compound | TGI | GI50
NC1=NC2(COC(c3ccccc3)(c3ccccc3)c3ccccc3)OC(COC(c3ccccc3)(c3ccccc3)c3ccccc3)C(O)C2O1 (configuration not stated) | > 100 µM | 
O=C(NCCN(CCNC(=O)c1cccc(O)c1O)CCNC(=O)c1cccc(O)c1O)c1cccc(O)c1O | > 100 µM | 
COCCN(Cc1ccc(F)cc1)c1ccc(CO)c(Cl)c1 | > 100 µM | 43.9 µM
CC(=O)OC1COC(N2CCc3cc([N+](=O)[O-])ccc32)C(OC(C)=O)C1OC(C)=O (configuration not stated) | > 100 µM | 
COc1ccccc1CNCCN1C(=O)c2ccc3c4c(ccc(c24)C1=O)C(=O)N(CCNCc1ccccc1OC)C3=O | 0.698 µM | 0.236 µM
COCCN(CCOC)c1nc(-c2ccccc2)nc2ccccc12 | 66.9 µM | 22.4 µM
COC(=O)[C@@]12OC[C@]34C([C@@H](O)C1O)[C@@]1(C)CC(=O)C(OC(=O)CC(C)C(F)(F)F)=C(C)C1C[C@H]3OC(=O)[C@H](O)[C@H]42 (some centres not stated) | > 62.5 µM | 
COc1ccc(-c2nc3ccc(Cc4ccc5nc(-c6ccc(OC)cc6)[nH]c5c4)cc3[nH]2)cc1 | 2.85 µM | 0.481 µM
CCc1cccc(CC)c1NC(=O)/C(Cl)=C(/Cl)C(=O)O | > 100 µM | 
O=C1c2ccccc2C(=O)c2c(NC3CCCCC3)ccc(Nc3ccc(S(=O)(=O)O)cc3)c21 | > 100 µM | 
CC12OC(=O)C(C#N)C1(C)C1C(=O)CCCC12 (configuration not stated) | > 100 µM | 
CCOC(=O)C1(C/C=C\CBr)CCCC1=O (configuration not stated) | > 100 µM | 
Cc1cc(N(CCC#N)CCC#N)ccc1/C(N=Nc1ccccc1)=N\NC(=O)c1cc(Cl)ccc1O | > 100 µM | 
O=[N+]([O-])c1cccc2nc3ccccc3c(NCCCCCNc3c4ccccc4nc4cccc([N+](=O)[O-])c34)c12 | 0.409 µM and 0.178 µM | 0.0135 µM
CCOC(=O)C1=C(NC)OCC1=O | > 100 µM | 
O=C(Nn1c(-c2ccccc2)nc2ccccc2c1=O)c1ccc(Cl)cc1 | > 100 µM | 
O=C1CC(c2cccc(Cl)c2)Nc2ccc(N3CCCC3)cc21 (configuration not stated) | > 100 µM | 0.0915 µM
COc1cc(OC)c(OC)cc1/C=C/c1nc2ccccc2s1 | > 100 µM | 
O=C(NCCC1CNc2ccccc21)OCc1ccccc1 (configuration not stated) | > 100 µM | 
Oc1c(N2CCCCC2)cc(-c2cc(N3CCCCC3)c(O)c3ccccc23)c2ccccc12 | 34.2 µM | 
Cc1ccc(N=N/C(=N/NC(=O)c2ccccc2)c2ccc(N(CCC#N)CCC#N)cc2C)cc1 | > 100 µM | 
O=c1[nH]c2[nH]c(=S)[nH]c(=S)c2[nH]1 | > 100 µM | 
COc1cc([C@@H]2c3cc4c(cc3[C@@H](Nc3ccc(NC(=O)c5cc([N+](=O)[O-])cn5C)cc3)[C@H]3COC(=O)[C@H]23)OCO4)cc(OC)c1O | > 76.1 µM | 2.04 µM and 0.751 µM

Compound | TGI | GI50
Cn1c(CNc2ccc(-c3n[nH]c(=S)n3C)cc2)n[nH]c1=S | > 100 µM | 
CC(=O)Oc1ccc(C2=Cc3ccc(OC(C)=O)cc3OC2C)cc1 (configuration not stated) | 24.3 µM | 4.56 µM
Cc1cc2nc3c(C#N)c(-c4ccccc4)/c(=C\Nc4ccc(F)cc4)c(=O)n3c2cc1C | > 100 µM | 
Cc1ccccc1C(CCCO)C(=O)O (configuration not stated) | > 100 µM | 
CC(C)[C@@H]1CC[C@]2(CO2)[C@@H]2C(=O)OCC(C(=O)O)=C[C@H]21 | 23 µM | 0.63 µM
S=C1SCN(Cc2ccccc2)CN1Cc1ccco1 | > 100 µM | 27.6 µM
NC(N)=NCCCC(NCc1c2ccccc2nc2ccccc12)C(=O)O (configuration not stated) | > 100 µM | 
O=C1C2C3C=CC(C2C(=O)N1CO)C1C2C(=O)N(CO)C(=O)C2C31 (configuration not stated) | > 100 µM | 
Cc1cc(O)c(/C=N/C(N)=S)c(=O)o1 | > 100 µM | 
COc1ccccc1C1c2cc3c(cc2OC2(OC)COC(=O)C12)OCO3 (configuration not stated) | > 92.8 µM | 
C=CCON(C(=O)OC(C)(C)C)C(C)(C)C | > 100 µM | 
CCC(c1ccccc1)c1noc(CCN(CC)CC)n1 (configuration not stated) | > 100 µM | 37.3 µM
OCC1CC[N-]CC1.OCC1CC[N-]CC1.[Cl][Pt+2]([Cl])([Cl])[Cl] | 89.3 µM | 29.5 µM
CC(SC(=S)N1CCOCC1)C(=O)Nc1nnc(-c2ccc(Cl)cc2)o1 (configuration not stated) | > 100 µM | 
C=C(C#N)C(=O)OCC(CC)CC.C=C(C#N)C(=O)OCC(CC)CC.CS(C)=O.CS(C)=O.Nc1c(N=Nc2ccc(-c3ccc(N=Nc4cc(S(=O)(=O)[O-])c5ccccc5c4N)cc3)cc2)cc(S(=O)(=O)[O-])c2ccccc12.[Pt+2] | > 100 µM | 69.1 µM
Oc1ccc(C(=C(Br)c2ccccc2)c2ccc(O)cc2)cc1 | 20.5 µM | 
O=C(COc1ccc(/C=C2\Oc3ccccc3C2=O)cc1)Nc1nc2ccccc2s1 | > 100 µM | > 87.8 µM
Cc1cccc(Cn2cc(CO)c3cnccc32)c1 | > 100 µM | > 100 µM
O=C1c2ccccc2C(=O)c2[nH]cnc21 | > 100 µM | 
CN(C)c1ccc(-c2cc(-c3ccc(Nc4nc(Nc5ccc(Cl)cc5)nc(Nc5ccc(Cl)cc5)n4)cc3)nc(N)c2C#N)cc1 | > 100 µM | > 100 µM
O=c1c(-c2ccccc2)nnc2n(Cc3ccccc3)c3ccccc3n12 | > 100 µM | 
Cc1noc(NC(=O)Nc2ccccc2F)c1C#N | > 46.1 µM | 
O=C(Nc1ccc(OC(F)(F)Cl)cc1)c1cnc(N2CC[C@@H](O)C2)c(-c2ccn[nH]2)c1 | 31.7 µM | 12.5 µM

Compound | TGI | GI50
COC(=O)c1cc2c(cc1Cl)Sc1nnc(Nc3ccccc3)n1S2(=O)=O | 19.3 µM | 
c1ccc(COC[C@H]2O[C@@H](c3ccccc3)C[C@@H](OCc3ccccc3)C2OCc2ccccc2)cc1 (some centres not stated) | > 10 µM | 
CCCCCCCCCCCCCCNC(=O)Nc1ccc(Cl)c(Cl)c1 | > 100 µM | 26.9 µM
CC(=O)Nc1ccc(C2CC(c3ccc([N+](=O)[O-])cc3)=Nc3ccccc3S2=O)cc1 (configuration not stated) | > 100 µM | 
COc1ccc(-c2[nH]c3ccc(OC)cc3c2C=C(C#N)C#N)cc1 | > 100 µM | > 100 µM
CCCCCC(=O)O[C@]1(C(C)=O)CCC2C3CCC4=CC(=O)CC[C@]4(C)C3CC[C@@]21C (some centres not stated) | 21.9 µM | 5.06 µM
COc1ccc(/C=C2\CCC/C(=C\c3ccc(OC)c(OC)c3)C2=O)cc1OC | > 32.5 µM | 2.88 µM
CCOC(=O)C1(C)CCC(C(C(=O)O)C(=O)O)CC1=O (configuration not stated) | > 100 µM | 
NNC(=O)C(=O)NN=C(C(Cl)(Cl)CO)C(Cl)(Cl)CO | > 100 µM | 
CC(=O)OCC(=O)[C@@]1(O)CC[C@H]2[C@@H]3C[C@H](C)C4=CC(=O)C=C[C@]4(C)[C@@]3(F)[C@@H](O)C[C@@]21C | > 100 µM | 
COc1cc(/C=C/c2csnn2)cc(OC)c1OC | > 100 µM | 
Cc1cccc2sc(NC(=O)NS(=O)(=O)n3cnc4ccccc43)nc12 | > 100 µM | 
CSCCC(C(=O)O)N(C)C (configuration not stated) | > 100 µM | 
O=[N+]([O-])c1ccc(-c2ccc(C3=Nn4c(CNc5ccccc5Cl)nnc4SC3)o2)cc1 | > 100 µM | 
COc1ccc(/C=C2\C(=O)N(NC(C)=O)c3ccccc32)cc1 | > 100 µM | 
Nc1nccc(-c2c(-c3ccc(F)cc3)nn3cc(C(F)(F)F)ccc23)n1 | > 25 µM | > 25 µM
COc1cc(C(=O)/C=C/c2cccc(Nc3ccnc4cc(Cl)ccc34)c2)cc(OC)c1OC | 3.28 µM | 1.52 µM
COC1(OC)CCc2c(sc3ncnc(Nc4cccc(Br)c4)c23)C1 | 71.5 µM | 
COc1ccc(-c2cc(/C=C/C(=O)c3ccc(N)cc3)[nH]n2)cc1OC | 16.5 µM | 4.34 µM
O=C1N[C@@H]2CCCC[C@@H]2C12CCCCC2 | > 100 µM | 
Cc1cc(C)c(-c2no/c(=N\S(=O)(=O)c3ccc(Cl)cc3)o2)c(C)c1 | > 100 µM | 
S=C1Cc2c(-c3ccccc3)cc(-c3cccc(Cl)c3)nc2-c2ccccc2N1 | 15 µM | 
